This is one part of the list.
tested on: PfSIP2 AP2 domain 1 (GST-tagged); experiment: gcPBM binding intensity (ln(normalized median fluorescence intensity)); higher = stronger DNA binding
How it was run: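 GST-tagged P. falciparum DNA-binding domains produced in E. coli were incubated for 1 h on an Agilent 4 × 180k array of primer-extended double-stranded 36-bp intergenic genomic probes with negative controls. Binding intensity is the highest Masliner-normalised natural-log median intensity across replicate spots of either probe orientation, with bound protein detected by Alexa488 anti-GST antibody at 488 nm.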

Row | Sequence | gcPBM binding intensity (ln)
1 | GAAAATATGTAATAGTGTACACATATATATGTATAT [XGTACX_site306] | 7.5
2 | TGCTCATTCCTGTCATGTACATATTATATATATATA [XGTACX_site6890] | 9.24
3 | ATATGAACATTTACATGTACATGTAAATGTAACACT [XGTACX_site4574] | 7.17
4 | ACTCCATAATATTGATGTACTATAATGCATTTATTT [XGTACX_site5562] | 7.25
5 | TATTTATTTTCATATAGTACTTTTTTCAGGCATATA [XGTACX_site6691] | 7.09
6 | TTATAGAATTTATTTACACACAAACATTTATACTTT [CACACA_site7592] | 6.93
7 | TTTATTTATGTTGAAACATGCAAAAAGTTATTTATA [TGCATGCA_site716] | 6.78
8 | TTCAAAAGCCGGATAACATGCAGTAGTAGAACAAAC [TGCATGCA_site413] | 7.31
9 | TTTCTGTGTTTTGGTTGTACACACGCTACATTATAT [XGTACX_site5669] | 7.27
10 | TTGTTTTTTTTTTCTATAAGCATAAAAATGATATAA [XGTACX_negctrl_site356] | 6.83
11 | AAATTAAAAAAATAATGTACATGTATTTATTATGTA [XGTACX_site2419] | 7.12
12 | TTTATTTATTATTAAAGTACTAAATCATATAATTAT [XGTACX_site5727] | 6.72
13 | TTTTATTTCTTTGCACCATTTTAAATACAAACAAAT [CACACA_negctrl_site1553] | 10.7
14 | TAAAACAATACTTTGTGCTTCTCTGGTTTTTTTTTT [GTGCAC_negctrl_site284] | 6.82
15 | AGTATTCACTTAATATGTACATATTTATTATAAGAG [XGTACX_site3434] | 7.09
16 | GCTTTTAAAATAATTGGTACACATGTATAAATTCAA [XGTACX_site2327] | 7.2
17 | TGGTATATAAAACACACACACATATGTATTTATATA [CACACA_site4665] | 7.11
18 | TTTTGCCTTTCTACTTGTACTTAAAATATTATAATT [XGTACX_site5483] | 7.61
19 | TGTATGAAATATATTACACACATATAAAATCTATAT [CACACA_site6514] | 6.75
20 | TTGATGTTGGTAGGATGTACGGTACCGGTAAAGTTT [XGTACX_site7705] | 7.1
21 | TTTTTAATTTTTTGTTGTACATATAATATATTATTA [XGTACX_site4903] | 7.17
22 | AAGCTTCATTAATATACACACATATATGCGTATATT [CACACA_site3695] | 6.81
23 | TATATAATTATAAGAACACACATATATATATATATA [CACACA_site2472] | 9.54

Row | Sequence | gcPBM binding intensity (ln)
24 | AAATTTGAAGAATATTGTACGCATAATAATTAAATA [XGTACX_site4300] | 7.2
25 | ATGCTTTTTAAATGATTGCACTAGATTGTAATATGT [GTGCAC_site9666] | 8.08
26 | TATATATATATTTTAACACACACATATATATATTTA [CACACA_site8892] | 8.67
27 | ATATATATATATTGCACACACAATTATTATTATTAT [CACACA_site2299] | 9.33
28 | GTGCATATCTGATATACACACAATAAAATAGTATGT [CACACA_site7203] | 9.24
29 | AATTATATATTTGAGAGTACATATGTAATGTTTATA [XGTACX_site6970] | 7.09
30 | CATATATTATTTATACGTACTAATAAAATAAATCAA [XGTACX_site1030] | 7.29
31 | TATGATACATAAATATGTACGTATAATATATATTTA [XGTACX_site7002] | 6.96
32 | CCCGTAAATTATGAGTGTACGTTATTTTTTAAAATG [XGTACX_site3946] | 7.07
33 | ACATATACATATATATGTACATAAATATATATATAT [XGTACX_site8630] | 9.03
34 | TTCTAACTTTTAAACACACAAATATAAATAAGTATA [CACACA_site7473] | 6.96
35 | GAACGTATCATGTGTACACACAAATTGTTTTTTTTT [CACACA_site2020] | 7.03
36 | AAGAATAATAATAAATGTACACAATATTATATATAT [XGTACX_site5525] | 7.65
37 | AAATGAACAAGTGGCACACACACATTATAACTAATT [CACACA_site9048] | 7.04
38 | TGCAAGCTTATATAGGTGCACATGTATACGTGTTCA | 11.3
39 | TATATACACAAACACACACACACATACACCCACATA [CACACA_site8504] | 7.21
40 | TATTAAAATTAAAAAAAAAAAAAAAAGCAATAAAAA [XGTACX_negctrl_site426] | 6.54
41 | TATGTAGTCACAAGGTGTACACTTTAACAAATTATG [XGTACX_site8792] | 7.23
42 | TGATTCTTTTGTATCACACACACTTAGTTTAATTTT [CACACA_site2404] | 6.85
43 | ACTTGACACGGACACACACACATATATAAAAAAAAA [CACACA_site4576] | 7.78
44 | TTTTTTTATTATCATGCACACATTTTTTTTTTTTAC [CACACA_site2253] | 7.42
45 | TCCTTTATTTTTAAATGTACAAATATTATCTCCTCA [XGTACX_site5856] | 7
46 | ATAATAAAAATAAGAGAATAAAAATGCAATTTAATG [CACACA_negctrl_site878] | 6.81

Row | Sequence | gcPBM binding intensity (ln)
47 | AACTCACATAAATTCACACAAATGTATATTCATATA [CACACA_site4554] | 6.94
48 | ATTTATAATGTGTATACACACATATATAGATTTGCT [CACACA_site6440] | 6.87
49 | ATTGATCGGATAAAATGTACAAATATATATATATAT [XGTACX_site7345] | 9.15
50 | AAATTATAATATAATACACACATAAAAAAAAAATCA [CACACA_site3634] | 6.88
51 | TATATATATATATATTGTACACATATATATTTACGA [XGTACX_site4791] | 9.46
52 | AAAAAATAATAAATCACACATATTATATATATATAT [CACACA_site5838] | 9.23
53 | AACATGAAAGATAGCAAAAAAAAAAAAAAAAAAAAA [TGCATGCA_negctrl_site607] | 6.87
54 | TCTTTTTTTATTTTATTTTTTTTTTTTAAATAATTC [TGCATGCA_negctrl_site372] | 6.71
55 | CATATTAATATTATGGGTACATATAAATTTACATTC [XGTACX_site687] | 7.13
56 | ATTATAATATTGTTATGTACATAAAAATTATTGAAT [XGTACX_site4476] | 7.37
57 | AAAACATAAATACATACACACATAATATATATTAAT [CACACA_site109] | 7.06
58 | ATAATATATTTATAATGTACATAAGAACAAATTAAA [XGTACX_site1745] | 7.09
59 | GGTATATTAAAATAGGTGCATAAAACTAAGAGAAAA [GTGCAC_site9781] | 11
60 | ACGTTTGATACACATAAAGTTTTCCTTTGAATGTAC [CACACA_negctrl_site106] | 7.08
61 | AAAAATTACCTGACTTGTACATAATTTAAGAACAAT [XGTACX_site6233] | 7.01
62 | TGTGCTATATTCATATGTACATATAATTATTATATA [XGTACX_site3549] | 7.3
63 | ATAAAATAAAAGTGTACACAAGAAAATATGTTATGT [CACACA_site6033] | 7.44
64 | AATAATACACAATTTTGTACGTATTTAAAATATATT [XGTACX_site45] | 7.38
65 | TATTTATGAGAAATAGTGCAAAGATATGATCTTTAA | 8.12
66 | AATTAAAAACATTTCACACATAAAAATGAAATATAT [CACACA_site5199] | 6.77
67 | TAAAATATATAATAATGTACATATTTTTATTTAGGA [XGTACX_site4987] | 6.84
68 | TTCAATTTTTTATGAACACACAAAAAAAAAAAAAAA [CACACA_site2533] | 7
69 | ACATAATTAACAAATACACACACACCCACCCACAAA [CACACA_site8069] | 7.25

Row | Sequence | gcPBM binding intensity (ln)
70 | ATATATAAGGATGTCACACATAAATATTAACACTAA [CACACA_site5101] | 7.06
71 | AAGAAAAAATATATATATATATATATATATAATATG [TGCATGCA_negctrl_site417] | 8.04
72 | TTATATTATTTTTATACATGCATTTCTATATATTTT [TGCATGCA_site164] | 7.31
73 | TATATTAAATAAAAAGTGCATGTCTCATAAGATGGA [GTGCAC_site9520] | 8.49
74 | TATAAATAAAGCAGTACACACATTTATTTTAGATAC [CACACA_site7566] | 7.14
75 | ATAAAATGTTAAGGGTGTACTTTACACATCTCCTAT [XGTACX_site4699] | 6.98
76 | ATAGGGAATTTATGCACACAGTTAAGGGGGAAAATT [CACACA_site5183] | 7.85
77 | TTTATACTATAATTATGTACTTATAAAAGGAATAAA [XGTACX_site8027] | 7.42
78 | ATAAACACATCTATATGTACATATATATATATATAC [XGTACX_site347] | 7.35
79 | ATGTAAATACATATATGTACACAAATATATATATAT [XGTACX_site3537] | 9.45
80 | TATATAAATATACATTGTACTCAACATTTTCATTAA [XGTACX_site3690] | 6.99
81 | TGTATTAATAAAAATACACACATCATATTATAGAAA [CACACA_site7629] | 6.96
82 | TATAAGATTATACAAAGTACATATAAATAATATATT [XGTACX_site1917] | 6.76
83 | ATATATATATAAATATGTACATATATATATTATATA [XGTACX_site120] | 8.65
84 | TTAAAAAAAGATTATACACACACATATATAAACATA [CACACA_site8136] | 7.05
85 | TCCTCTTTTATTTTTACACACGCGTAAACATATATA [CACACA_site667] | 7.65
86 | TGAAATAAAAAATATAGTACTCGTTCGTAACCAAAA [XGTACX_site413] | 7.12
87 | ATGGGTTAAAAATGCACACAAAAAAATATACAGATA [CACACA_site4321] | 7.79
88 | TTATATATATTTAAAAAAATAACATAAATAAATAAA [CACACA_negctrl_site347] | 6.91
89 | TTAAATAAAAGGTTTAGTACTTAAAATAAGAAATGA [XGTACX_site6341] | 6.91
